# About 17,000 (4.4%) of roughly 390,000 compounds were called active. The shares of active, inactive and inconclusive entries below differ from those in the screen. Calls come from the whole dose curve; as a rule, active = well fitted inhibition curve with a large enough effect; inconclusive = small, poorly fitted or top-dose-only effect; inactive = no such curve, though single readings can be large or run the other way. Potencies of inconclusive entries are doubtful fits and often do not repeat. The source holds several records for some structures; these can differ, active in one and inactive in another.
# Biological target: Lysine-specific demethylase 4A (Homo sapiens) (UniProt O75164)
# Sequence of UniProt O75164 (O75164 whole entry, looked up, the tested form may be a part): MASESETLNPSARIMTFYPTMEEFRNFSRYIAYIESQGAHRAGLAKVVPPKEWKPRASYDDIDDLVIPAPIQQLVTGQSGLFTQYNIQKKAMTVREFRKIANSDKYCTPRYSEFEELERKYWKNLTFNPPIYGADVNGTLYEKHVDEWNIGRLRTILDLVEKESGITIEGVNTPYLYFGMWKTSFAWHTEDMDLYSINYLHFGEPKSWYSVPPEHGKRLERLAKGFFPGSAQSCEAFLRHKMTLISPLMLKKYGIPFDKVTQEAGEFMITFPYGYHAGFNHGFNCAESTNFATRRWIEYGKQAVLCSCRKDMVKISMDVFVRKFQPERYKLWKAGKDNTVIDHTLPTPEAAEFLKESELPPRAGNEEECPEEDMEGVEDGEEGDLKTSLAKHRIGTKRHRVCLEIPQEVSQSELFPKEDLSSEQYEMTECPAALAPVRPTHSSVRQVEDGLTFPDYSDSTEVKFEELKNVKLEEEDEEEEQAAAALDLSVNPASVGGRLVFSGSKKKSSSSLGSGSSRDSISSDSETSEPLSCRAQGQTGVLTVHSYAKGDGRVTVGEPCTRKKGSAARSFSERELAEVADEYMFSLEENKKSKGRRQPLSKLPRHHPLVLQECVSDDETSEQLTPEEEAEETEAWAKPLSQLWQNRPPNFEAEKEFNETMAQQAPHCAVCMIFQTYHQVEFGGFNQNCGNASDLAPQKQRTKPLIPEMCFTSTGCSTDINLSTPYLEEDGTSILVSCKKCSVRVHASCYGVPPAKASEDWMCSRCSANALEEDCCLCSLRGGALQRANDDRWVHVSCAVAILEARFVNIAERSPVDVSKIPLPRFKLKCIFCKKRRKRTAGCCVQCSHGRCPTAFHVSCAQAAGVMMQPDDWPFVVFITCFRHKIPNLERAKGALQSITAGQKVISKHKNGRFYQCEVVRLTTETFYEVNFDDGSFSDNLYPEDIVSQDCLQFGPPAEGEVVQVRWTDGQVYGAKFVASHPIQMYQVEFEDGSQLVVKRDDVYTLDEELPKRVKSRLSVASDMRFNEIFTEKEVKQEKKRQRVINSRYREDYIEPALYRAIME
# Assay: qHTS Assay for Inhibitors of JMJD2A-Tudor Domain; note: nearly all actives have a fitted effect of over 50% in size
# Details: AlphaScreen JMJD2A-Tudor / H3K4me3 peptide binding; activity change, negative = inhibition: at 114 µM (top of the series)
# % is set by controls: 0 for no effect and ±100 for the full control effect; potency is the fitted concentration of half-maximal effect; tags give direction and shape of the fitted curve.
Compound,Potency,"activity change, negative = inhibition"
CCOC(=O)C1=C(O)/C(=C\c2cc(C)n(-c3ccc(F)cc3)c2C)N=C1C,"inconclusive: 12.6 µM [inhibitor, full curve, poor fit]",–
Cc1ccc(C2(C)NC(=O)N(CC(=O)NCCC3=CCCCC3)C2=O)cc1 (centres undefined),inactive,–
Cc1ccc(OCC(=O)Nc2nnc(S(=O)(=O)N3CCCCC3)s2)cc1,"inconclusive: 56.2 µM [inhibitor, partial curve]",–
COc1ccc(NC(=O)C(c2ccc(C)cc2)N(C)C(=O)/C=C\c2ccc3c(c2)OCO3)cc1 (centres undefined),"inconclusive: 50.1 µM [inhibitor, partial curve]",–
C=C(C)Cn1c(CCNC(=O)CC)nc2ccccc21,"inconclusive: 3.16 µM [inhibitor, full curve, poor fit]",–
CN(CC(=O)Nc1cccc(F)c1)C(=O)CN1c2cccc3cccc(c23)S1(=O)=O,inactive,–
Cc1ccc(C(=O)CCC(=O)Nc2ncccc2O)cc1,"inconclusive: 35.5 µM [inhibitor, partial curve]",–
CCOC(=O)c1ccc(NC(=O)CCc2c(C)nc3c(c(C)nn3-c3ccccc3)c2C)cc1,"inconclusive: 31.6 µM [inhibitor, partial curve]",–
O=C1C=C(Nc2ccccc2O)c2ccccc2C1=O,"inconclusive: 44.7 µM [inhibitor, partial curve]",–
CCN(CC)C(=O)[C@H]1CC(CC(=O)NCc2cccc(C(F)(F)F)c2)C(=O)N2CCc3c([nH]c4ccc(OC)cc34)[C@]12C (some centres undefined),"inconclusive: 35.5 µM [inhibitor, full curve, poor fit]",–
Cc1ccc(NC(=O)/C=C\C(=O)NCC(=O)O)cc1C,"inconclusive: 14.1 µM [inhibitor, partial curve]",–
CN(C(=O)c1ccno1)c1nnc(-c2ccccn2)s1,"inconclusive: 89.1 µM [inhibitor, single point]",–
CCN(CC)c1ccc(/C=N/N2CCOCC2)cc1,"inconclusive: 70.8 µM [inhibitor, partial curve, poor fit]",–
O=C(N/N=C\c1ccc(Cl)cc1Cl)c1sccc1-n1cccc1,"inconclusive: 56.2 µM [inhibitor, partial curve]",–
CN(C)CCOc1ccccc1-c1ccccc1,active: 0.891 µM,–
O=C(CSc1ccc(C(F)(F)F)cc1[N+](=O)[O-])N1CCOCC1,inactive,–
O=C(CCN1C(=O)/C(=C/c2ccccc2Cl)SC1=S)Nc1ccccn1,inactive,–
CCOC(=O)Cc1csc(NC(=O)CSc2nc(=O)[nH]c3c2CCCC3)n1,inactive,–
CCOC(=O)c1c(NC(=O)/C=C/c2ccc(C(C)C)cc2)sc2c1CCC2,inactive,–
Oc1ccc(CNc2ccc(F)cc2)c2cccnc12,active: 56.2 µM,–
CCC(c1nnnn1CC1CCCO1)N(CCN1CCOCC1)Cc1cc2cc(C)ccc2[nH]c1=O (centres undefined),inactive,–
Cc1cccc(C(=O)Nc2sc3c(c2C(=O)N2CCCCC2)CCC(C)C3)c1 (centres undefined),inactive,–
Cc1[nH]nc2c1C(CC(C)C)C(C#N)=C(N)O2 (centres undefined),inactive,–
COc1ccc(C(CC(=O)N2CCOCC2)c2c(OC)cc(OC)c3c(-c4ccccc4)cc(=O)oc23)cc1 (centres undefined),active: 56.2 µM,–
Cn1c(SCC(=O)N2c3ccccc3Sc3ccc(Cl)cc32)nnc1-c1ccco1,"inconclusive: 50.1 µM [inhibitor, partial curve]",–

Compound,Potency,"activity change, negative = inhibition"
COc1ccc(-c2nn(-c3ccccc3)cc2/C=N/Nc2cccc(C(=O)O)c2)cc1,"inconclusive: 56.2 µM [inhibitor, partial curve]",–
CC(O)CSc1nc2c(c(=O)[nH]c(=O)n2C)n1Cc1ccccc1 (centres undefined),inactive,–
Cc1nn(-c2ccccc2)c(C)c1/C=N\N1CCN(c2ccc(Cl)cc2)CC1,active: 28.2 µM,–
COc1ccccc1Oc1c(C)oc2c(CN(C)C)c(O)ccc2c1=O,"inconclusive: 31.6 µM [inhibitor, partial curve]",–
CCc1nnc(NC(=O)c2nc(S(=O)(=O)Cc3ccc(C)cc3)ncc2Cl)s1,active: 14.1 µM,–
Nc1ccccc1SSc1ccccc1N,active: 31.6 µM,–
CN(Cc1ccccc1)C(=S)NC(=O)c1ccc(-c2ccccc2)cc1,inactive,–
COc1cc(C2C(C#N)=C(N)N(Nc3ccccc3)C3=C2C(=O)CC(C)(C)C3)ccc1OCc1ccccc1 (centres undefined),"inconclusive: 79.4 µM [inhibitor, partial curve]",–
Cc1ccc(C(=O)c2cc([N+](=O)[O-])ccc2N2CC(C)OC(C)C2)cc1 (centres undefined),"inconclusive: 39.8 µM [inhibitor, full curve]",–
Cc1cc(C)c(NC(=O)C(C)n2c(=O)c(C(F)(F)F)nc3ccccc32)c(C)c1 (centres undefined),inactive,–
COc1ccc(CNc2nc(SCc3ccc(Cl)cc3)nc3ccccc23)cc1,inactive,–
CC(=O)N1c2ccc(S(=O)(=O)N3CCC(C(=O)Nc4ncccc4C)CC3)cc2CC1C (centres undefined),inactive,–
Cn1cccc1/C=N/NC(=O)c1ccccn1,"inconclusive: 6.31 µM [inhibitor, single point]",–
COc1cc(NS(=O)(=O)c2ccc(NC(=S)NC(=O)/C=C/c3ccco3)cc2)ncn1,active: 17.8 µM,–
COc1ccc(CN(C(=O)c2snc(C(N)=O)c2N)C(C(=O)NC2CCCC2)c2cc(OC)ccc2OC)cc1 (centres undefined),inactive,–
COc1ccccc1C1CCCN1Cc1nc(-c2cc3c(cc2Cl)OCO3)oc1C (centres undefined),"inconclusive: 89.1 µM [inhibitor, partial curve]",–
Cc1ccc(CNC(=O)CCC2CCCN(Cc3cc4ccccc4o3)C2)o1 (centres undefined),"inconclusive: 17.8 µM [inhibitor, full curve, poor fit]",–
CCc1noc(C)c1C(=O)OC(C)C(=O)Nc1ccccc1OC (centres undefined),inactive,–
COc1ccc(/C=C2\Sc3ccc(C(=O)NCc4cccnc4)cc3N(C)C2=O)cc1OC,"inconclusive: 63.1 µM [inhibitor, partial curve, poor fit]",–
COc1cccc(C(=O)NCc2ccc3c(c2)CCN3C(=O)c2ccncc2)c1,inactive,–
COc1ccc(CN(C)CC(=O)Nc2c(C)cccc2C)c(OC)c1,inactive,–
O=C(NCC1CCCO1)C(=O)N/N=C/c1ccc(OCc2ccccc2Cl)cc1 (centres undefined),active: 44.7 µM,–
COc1ccc(-c2[nH]c(-c3cccc(OC)c3)nc2SCC(=O)Nc2ccc3c(c2)OCO3)cc1,"inconclusive: 7.94 µM [inhibitor, full curve]",–
Cc1ccc(NC(=S)NNC(=O)c2ccc(N3CCOCC3)c([N+](=O)[O-])c2)cc1C,"inconclusive: 44.7 µM [inhibitor, partial curve]",–
Cc1cc2nnc(SCc3ccc(F)cc3)n2c2ccccc12,inactive,–

Compound,Potency,"activity change, negative = inhibition"
Cc1cc(/C=C2\SC(=S)NC2=O)c(C)n1C,active: 44.7 µM,–
Cc1cc(OC(C)C(=O)NCc2cccnc2)c2c(C)cc(=O)oc2c1 (centres undefined),"inconclusive: 25.1 µM [inhibitor, full curve, poor fit]",–
Nc1ccc(C(=O)N/N=C/c2cn(Cc3ccccc3)c3ccccc23)cc1,"inconclusive: 35.5 µM [inhibitor, full curve]",–
COc1ccc(-n2c(SCC(=O)Nc3cc(C)on3)nc3c([nH]c4ccccc43)c2=O)cc1OC,inactive,–
Cc1cc(C)c2nc(N(CCN(C)C)C(=O)c3ccc4ccccc4c3)sc2c1,active: 39.8 µM,–
Cc1cc(C)c[n+](-c2[nH]c(=O)sc2/C=N/NC([S-])=Nc2ccccc2)c1,"inconclusive: 39.8 µM [inhibitor, partial curve]",–
Cc1ccc(-c2c(C#N)c(N)n3c(nc4ccccc43)c2C#N)cc1,"inconclusive: 89.1 µM [inhibitor, single point]",–
Clc1ccc(-c2nc3cnccn3c2Nc2ccc3c(c2)OCO3)cc1,active: 50.1 µM,–
CCOc1ccc(C(=O)/C=C/c2cn(CC(O)CN3CCCCCC3)c3ccccc23)cc1 (centres undefined),active: 70.8 µM,–
Clc1cccc(/C=N/Nc2ncnc3ccccc23)c1,"inconclusive: 50.1 µM [inhibitor, partial curve]",–
O=C(NCc1ccccc1)n1cc(P(=S)(c2ccccc2)c2ccccc2)c2ccccc21,inactive,–
CC1CCN(c2cc(N3CCOCC3)c(F)cc2[N+](=O)[O-])CC1,"inconclusive: 44.7 µM [inhibitor, partial curve]",–
Cc1cccc(C(=O)Oc2cccc3c(O)cccc23)c1,"inconclusive: 56.2 µM [inhibitor, partial curve, poor fit]",–
CC(C(=O)NC1CCS(=O)(=O)C1)N1C(=O)/C(=C/c2ccc(Cl)cc2)SC1=S (centres undefined),active: 56.2 µM,–
Cc1cccc(C)c1Nc1c(-c2ccccc2F)nc2cccc(C)n12,active: 50.1 µM,–
CCOc1ccc(N2CC(NC(=O)C(=O)c3c[nH]c4ccccc34)CC2=O)cc1 (centres undefined),inactive,–
CC1=CC2=NC(=O)/C(=C\c3cccn3CCOc3ccccc3C)C(=N)N2O1,"inconclusive: 17.8 µM [inhibitor, single point]",–
COc1c(Cl)cccc1-c1cn2ccc(C)cc2n1,inactive,–
O=C(COc1ccc2c3c(c(=O)oc2c1)CCCC3)NCc1ccncc1,inactive,–
CCCc1cc(C(N)=O)c(NC(=O)C2CCCO2)s1 (centres undefined),"inconclusive: 89.1 µM [inhibitor, partial curve]",–
O=c1c2c3c(sc2n2cnnc2n1-c1ccccc1)N(Cc1ccccc1)CCC3,"inconclusive: 39.8 µM [inhibitor, single point]",–
Cc1ccccc1OCCn1c(=S)[nH]c2c(N)ncnc21,active: 7.08 µM,–
CCC1(CC)NC(=O)N(CC(=O)N2N=C(c3ccc(Cl)cc3)CC2c2ccco2)C1=O (centres undefined),–,inconclusive: -41.7% [inhibitor]
O=C(N/N=C/c1c(O)n(-c2ccccc2Cl)c(=O)c2ccccc12)c1cccnc1,"inconclusive: 63.1 µM [inhibitor, partial curve, poor fit]",–
